From the supplement of paper PMC8728848
This is one part of the list.

Legend:
Assay in all cases: glycan array binding signal (z-score within array); higher = stronger binding
Settings in all cases: glycan notation: IUPAC condensed, linker removed
[1] = target: Neu5Ac(a2-3)Gal(b1-4)GlcNAc(b1-2)[Neu5Ac(a2-3)Gal(b1-4)GlcNAc(b1-4)]Man(a1-3)[GlcNAc(b1-4)][Neu5Ac(a2-3)Gal(b1-4)GlcNAc(b1-4)Man(a1-6)]Man(b1-4)GlcNAc(b1-4)GlcNAc
In short: (§1)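 From the Consortium for Functional Glycomics database, 3228 arrays were curated, keeping only those whose protein sequence was available. Binding is given as a within-array Z-score averaged across arrays sharing a protein sequence and across linkers. Negative Z-scores can be read as non-binding.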

[2] = target: Neu5Ac(a2-3)Gal(b1-4)GlcNAc(b1-2)[Neu5Ac(a2-3)Gal(b1-4)GlcNAc(b1-6)]Man(a1-6)[Neu5Ac(a2-3)Gal(b1-4)GlcNAc(b1-2)Man(a1-3)]Man(b1-4)GlcNAc(b1-4)GlcNAc
In short: as §1

[3] = target: Neu5Ac(a2-3)Gal(b1-4)GlcNAc(b1-2)[Neu5Ac(a2-3)Gal(b1-4)GlcNAc(b1-6)]Man(a1-6)[Neu5Ac(a2-3)Gal(b1-4)GlcNAc(b1-2)Man(a1-3)][GlcNAc(b1-4)]Man(b1-4)GlcNAc(b1-4)GlcNAc
In short: as §1

[4] = target: Neu5Ac(a2-3)Gal(b1-4)GlcNAc(b1-3)Gal
In short: as §1

[5] = target: Neu5Ac(a2-3)Gal(b1-4)GlcNAc(b1-3)Gal(b1-3)GlcNAc
In short: as §1

[6] = target: Neu5Ac(a2-3)Gal(b1-4)GlcNAc(b1-3)Gal(b1-4)GlcNAc
In short: as §1

[7] = target: Neu5Ac(a2-3)Gal(b1-4)GlcNAc(b1-3)Gal(b1-4)GlcNAc(b1-2)Man(a1-3)[Neu5Ac(a2-3)Gal(b1-4)GlcNAc(b1-3)Gal(b1-4)GlcNAc(b1-2)Man(a1-6)]Man(b1-4)GlcNAc(b1-4)GlcNAc
In short: as §1

[8] = target: Neu5Ac(a2-3)Gal(b1-4)GlcNAc(b1-3)Gal(b1-4)GlcNAc(b1-3)Gal(b1-4)GlcNAc
In short: as §1

[9] = target: Neu5Ac(a2-3)Gal(b1-4)GlcNAc(b1-3)Gal(b1-4)GlcNAc(b1-3)Gal(b1-4)GlcNAc(b1-2)Man(a1-3)[Neu5Ac(a2-3)Gal(b1-4)GlcNAc(b1-3)Gal(b1-4)GlcNAc(b1-3)Gal(b1-4)GlcNAc(b1-2)Man(a1-6)]GalNAc
In short: as §1

[10] = target: Neu5Ac(a2-3)Gal(b1-4)GlcNAc(b1-3)Gal(b1-4)GlcNAc(b1-3)GalNAc
In short: as §1

[11] = target: Neu5Ac(a2-3)Gal(b1-4)GlcNAc(b1-3)Gal(b1-4)GlcNAc(b1-3)[Neu5Ac(a2-3)Gal(b1-4)GlcNAc(b1-3)Gal(b1-4)GlcNAc(b1-6)]GalNAc
In short: as §1

[12] = target: Neu5Ac(a2-3)Gal(b1-4)GlcNAc(b1-3)Gal(b1-4)GlcNAc(b1-6)[Gal(b1-3)]GalNAc
In short: as §1

[13] = target: Neu5Ac(a2-3)Gal(b1-4)GlcNAc(b1-3)Gal(b1-4)[Fuc(a1-3)]GlcNAc
In short: as §1

[14] = target: Neu5Ac(a2-3)Gal(b1-4)GlcNAc(b1-3)GalNAc
In short: as §1

[15] = target: Neu5Ac(a2-3)Gal(b1-4)GlcNAc(b1-3)[Neu5Ac(a2-3)Gal(b1-4)GlcNAc(b1-6)]GalNAc
In short: as §1

[16] = target: Neu5Ac(a2-3)Gal(b1-4)GlcNAc(b1-6)GalNAc
In short: as §1

[17] = target: Neu5Ac(a2-3)Gal(b1-4)GlcNAc(b1-6)[Gal(b1-3)]GalNAc
In short: as §1

[18] = target: Neu5Ac(a2-3)Gal(b1-4)GlcNAc(b1-6)[Neu5Ac(a2-3)Gal(b1-3)]GalNAc
In short: as §1

[19] = target: Neu5Ac(a2-3)Gal(b1-4)GlcNAc6S
In short: as §1

[20] = target: Neu5Ac(a2-3)Gal(b1-4)[Fuc(a1-3)]GlcNAc
In short: as §1

[21] = target: Neu5Ac(a2-3)Gal(b1-4)[Fuc(a1-3)]GlcNAc(b1-2)Man
In short: as §1

[22] = target: Neu5Ac(a2-3)Gal(b1-4)[Fuc(a1-3)]GlcNAc(b1-3)Gal
In short: as §1

[23] = target: Neu5Ac(a2-3)Gal(b1-4)[Fuc(a1-3)]GlcNAc(b1-3)Gal(b1-4)GlcNAc
In short: as §1

[24] = target: Neu5Ac(a2-3)Gal(b1-4)[Fuc(a1-3)]GlcNAc(b1-3)Gal(b1-4)[Fuc(a1-3)]GlcNAc(b1-3)Gal(b1-4)[Fuc(a1-3)]GlcNAc
In short: as §1

[25] = target: Neu5Ac(a2-3)Gal(b1-4)[Fuc(a1-3)]GlcNAc(b1-3)GalNAc
In short: as §1

[26] = target: Neu5Ac(a2-3)Gal(b1-4)[Fuc(a1-3)]GlcNAc(b1-6)[Gal(b1-3)]GalNAc
In short: as §1

[27] = target: Neu5Ac(a2-3)Gal(b1-4)[Fuc(a1-3)]GlcNAc(b1-6)[Neu5Ac(a2-3)Gal(b1-3)]GalNAc
In short: as §1

[28] = target: Neu5Ac(a2-3)Gal(b1-4)[Fuc(a1-3)]GlcNAc6S
In short: as §1

[29] = target: Neu5Ac(a2-3)Gal6S(b1-4)GlcNAc
In short: as §1

[30] = target: Neu5Ac(a2-3)Gal6S(b1-4)[Fuc(a1-3)]GlcNAc
In short: as §1

Neu5Ac(a2-3)GalNAc = target: Neu5Ac(a2-3)GalNAc
In short: as §1

[31] = target: Neu5Ac(a2-3)GalNAc(b1-4)GlcNAc
In short: as §1

[32] = target: Neu5Ac(a2-3)[GalNAc(b1-4)]Gal(b1-4)Glc
In short: as §1

[33] = target: Neu5Ac(a2-3)[GalNAc(b1-4)]Gal(b1-4)GlcNAc
In short: as §1

[34] = target: Neu5Ac(a2-3)[GalNAc(b1-4)]Gal(b1-4)GlcNAc(b1-3)GalNAc
In short: as §1

[35] = target: Neu5Ac(a2-3)[Neu5Ac(a2-6)]GalNAc
In short: as §1

Neu5Ac(a2-6)Gal = target: Neu5Ac(a2-6)Gal
In short: as §1

B1: PX14367B-bvu-516-23-516 (Bacteroides vulgatus) (protein)
chain: LDTIPTTYVDAGSVFGKTGDAEKVLNGGWNYLMETFNSYANPGYGAMLRANDAMGSDVVLNSKYGFRTHNEFSAIYGKGGTNTLSWLLAYRVINDCNGVLDNIDAAEGTQADRNRIKGQALALRGFLYLHLASCYSFAIDKDPDAVCAPIYTQSTDETIAAEGKPASSVSEVYAQSINDLEEALELIPETYVRDAKHKIDNEVVLGILSRACLYARQWEKAKTYSDKLLAKDNYLMTESEYKAGFNSVDNKEWIWGHAQTNDQSNASYQFHYLDTTTKGSYYYSFNVDPYFRDLFEDGDYRKEMLFWATDPGADVESAAYVWMRNSKFRFRDIENQLGDIVLMRVAEIYLINAEAKAHLNDPDAINKLNDLKTARGAKTIHTNLSQQDLLETIWLERRKELWGEGFSLIDIIRNQQTVVRNAYPEGPIDYIYTDENGQTHTLKKKTQGHRFFNFPDKSAFCPNSKYYLYRITDSEELANKNLYKDHPKLSIYTK
[1]
  glycan array binding signal (z-score): -0.262
[2]
  glycan array binding signal (z-score): -0.158
[3]
  glycan array binding signal (z-score): -0.317
[4]
  glycan array binding signal (z-score): -0.264
[5]
  glycan array binding signal (z-score): -0.328
[6]
  glycan array binding signal (z-score): -0.204
[7]
  glycan array binding signal (z-score): -0.164
[8]
  glycan array binding signal (z-score): -0.354
[9]
  glycan array binding signal (z-score): -0.07
[10]
  glycan array binding signal (z-score): -0.343
[11]
  glycan array binding signal (z-score): -0.296
[12]
  glycan array binding signal (z-score): -0.3
[13]
  glycan array binding signal (z-score): -0.347
[14]
  glycan array binding signal (z-score): -0.298
[15]
  glycan array binding signal (z-score): -0.326
[16]
  glycan array binding signal (z-score): -0.227
[17]
  glycan array binding signal (z-score): -0.123
[18]
  glycan array binding signal (z-score): -0.354
[19]
  glycan array binding signal (z-score): -0.075
[20]
  glycan array binding signal (z-score): -0.289
[21]
  glycan array binding signal (z-score): -0.317
[22]
  glycan array binding signal (z-score): -0.388
[23]
  glycan array binding signal (z-score): -0.019
[24]
  glycan array binding signal (z-score): -0.281
[25]
  glycan array binding signal (z-score): 0.014
[26]
  glycan array binding signal (z-score): 1.17
[27]
  glycan array binding signal (z-score): 0.034
[28]
  glycan array binding signal (z-score): -0.354
[29]
  glycan array binding signal (z-score): -0.101
[30]
  glycan array binding signal (z-score): -0.307
Neu5Ac(a2-3)GalNAc
  glycan array binding signal (z-score): -0.319
[31]
  glycan array binding signal (z-score): -0.341
[32]
  glycan array binding signal (z-score): 0.265
[33]
  glycan array binding signal (z-score): -0.356
[34]
  glycan array binding signal (z-score): -0.226
[35]
  glycan array binding signal (z-score): -0.309
Neu5Ac(a2-6)Gal
  glycan array binding signal (z-score): 0.065
